# Source: the supplement of paper PMC3334620
# The full ranking holds about 33,000 sequences; the median of “E-score (-0.5 to 0.5)” is about -0.016, and the highest 2% start at about 0.31. Some of the results follow.
# Target: Cst6 (UniProt P40535)
# Experiment: PBM E-score (8-mer binding enrichment) (E-score (-0.5 to 0.5)); higher = stronger / more preferred TF binding; most listed sequences are background and not binding sites
# Details: protein concentration: 200 nM; construct: GST-DNA-binding domain
# In short: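 The E-score, a modified Wilcoxon-Mann-Whitney statistic, was computed by the Universal PBM Analysis Suite for every ungapped eight-base word pooled with its reverse complement. Scans behind it were normalised with masliner after bound GST-tagged yeast transcription factors were detected with fluorescent anti-GST. The proteins, at about 100-200 nM, had been applied to universal all-10-mer Agilent arrays made double-stranded by primer extension.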
row,Sequence,PBM E-score
1,CACAGTCC,-0.153
2,GAAAGGGA,0.0133
3,GCACTAAC,-0.119
4,AGCGGCTG,-0.103
5,GAACTCAA,-0.149
6,CTGTGCTC,-0.0956
7,AATTTTTG,0.283
8,AATCGTGG,0.136
9,CCCTCACG,-0.084
10,GCATGCCC,-0.0157
11,GGGTTGAC,0.071
12,AAAAGGAG,-0.153
13,AGACGACG,-0.0212
14,ATCCAGTA,-0.0439
15,CCCTTGTA,-0.204
16,TAGGCACA,0.062
17,GTGATTTA,0.165
18,TCCGGGAA,0.0328
19,CAGAGATC,-0.0588
20,GAGCTCGA,0.0164
21,ATGCCCTC,-0.0437
22,CTACAGAA,0.0652
23,CCTTTGTC,-0.0975
24,ATCATCGC,0.179
25,CAGAAATA,0.217

row,Sequence,PBM E-score
1,AACGGCAC,0.343
2,CTCCGAAG,-0.197
3,AAACATTA,0.0438
4,CCCACAGG,-0.223
5,CCGCTTAG,-0.134
6,CGGCCGGA,-0.145
7,TCTAACCA,0.057
8,CCTACAGC,-0.209
9,GCTCGCAC,-0.211
10,AAGTCAAA,0.132
11,AAGCACGG,-0.0413
12,TGAGGACA,0.0707
13,CAGGATTA,0.169
14,GTATCAAC,-0.0365
15,CGAGCACC,-0.189
16,ACGACGAT,0.157
17,AAATATGG,-0.00593
18,CTTGGGCC,-0.229
19,ATCAAGGG,0.0863
20,ACTGAGAT,-0.0678
21,AACTAAAG,0.229
22,AGGGAACA,-0.12
23,TACGCATA,0.157
24,CTTGTCGC,-0.133
25,TATCGAAA,0.195

row,Sequence,PBM E-score
1,TCAATTGA,0.287
2,CCAGCGCG,-0.0669
3,CATCGGTC,-0.215
4,GCAAGAAC,0.107
5,GCGCCCGC,-0.133
6,GCGATCCC,-0.241
7,AACTGAAA,0.178
8,CCCAAGAC,-0.0855
9,CTCTCGCA,-0.207
10,CATCTTCA,-0.105
11,CAGAGATG,0.141
12,CCTGACTC,-0.247
13,AGACCTTC,-0.146
14,GCCCATCA,-0.124
15,GGCCAGAC,-0.152
16,GGATTAAA,0.00456
17,GCGGTTGA,0.0505
18,ATTTAGTA,0.277
19,TCTGGCCA,-0.0762
20,ATGGGGCG,0.142
21,ATCGACGC,0.106
22,GCGATACC,-0.131
23,AGAACTGA,0.192
24,CCTTAGCA,-0.141
25,ACACTCCT,-0.201

row,Sequence,PBM E-score
1,AATGATAA,0.347
2,AATTCCAC,0.0707
3,TATACGAA,0.133
4,GGCCAACC,-0.141
5,AGGCGGCC,-0.0818
6,AGGTCGAC,-0.154
7,ACTTGCAC,0.00046
8,AGACCACC,-0.137
9,AAGTTCAT,0.0195
10,CACGTTGC,-0.00118
11,AGGGAGTA,-0.178
12,GGACCCCC,-0.431
13,GAGCGCGC,0.116
14,AAACGTAT,0.276
15,ACTGGCAA,-0.043
16,ACCGTAAA,0.144
17,GCGCAAAA,0.126
18,AAATGTGG,0.119
19,ATTCTATG,0.164
20,AGGATATG,-0.00926
21,ATACCGAA,0.127
22,TGAACAAA,0.234
23,CAGTCTGG,-0.236
24,ATACGGGC,-0.204
25,GCAGAATA,0.174

row,Sequence,PBM E-score
1,CAACTCAC,0.069
2,ACGAGCCC,-0.166
3,CATCCAAG,-0.101
4,GCTAGTTA,0.0209
5,CCTTCAAG,-0.0915
6,AGCACGAT,0.00212
7,AAGGGTAG,-0.0672
8,AGCGCGGA,-0.0997
9,CTTTGCCC,-0.272
10,ACGCACTA,0.0479
11,ATGTATGG,0.0177
12,CCCCTGAA,-0.109
13,AGACCCCC,-0.341
14,ATCTATTA,0.259
15,TATATGAA,0.198
16,GAGGTATA,0.0979
17,ACGATGCA,-0.00326
18,ATAGTAGA,-0.0203
19,ACTGTTGA,0.0234
20,AGTATCTG,-0.139
21,AGTACTAA,0.119
22,AAGTTCCT,-0.0962
23,AAGACACG,0.222
24,AGTCCGTC,0.11
25,AGATTCCA,0.17

row,Sequence,PBM E-score
1,ATGTTCAA,-0.0159
2,CGTGGTTA,0.0225
3,CCGCCTTA,0.0538
4,CAGGTTGG,-0.178
5,ACAATGCA,0.147
6,CCGCACGG,0.234
7,CGAAAGCC,-0.235
8,TACAATCA,0.0771
9,AAATGTAG,-0.0471
10,ATTCGTAC,0.206
11,AAGAGATA,-0.0328
12,ACAGCTCC,0.0842
13,GATGTTCC,-0.184
14,AAGATGGA,-0.159
15,AGCGTTGG,-0.172
16,GCTGCCCA,-0.226
17,GCTAATCA,0.141
18,TATTGCCA,-0.0113
19,GCGCTGGA,-0.207
20,ATTCGCTC,0.0295
21,CGAAGTCA,0.0581
22,GAGCACTA,-0.118
23,ATCGCAAA,0.196
24,AGTCTAGA,-0.124
25,TCCAAGGA,-0.202

row,Sequence,PBM E-score
1,GATCAGGC,-0.149
2,ATTGAGTG,0.2
3,TACTCCAA,-0.0919
4,CTTCAGTC,-0.00275
5,TCTTCGCA,0.0454
6,AACGAAGG,-0.0764
7,ACGTCAAC,0.484
8,GATCGACA,0.0229
9,CCATTTGA,-0.0854
10,CGTGCTAA,0.0279
11,AATCTTGT,0.185
12,GTCGCAGA,-0.0312
13,ACCCTCCC,0.077
14,GTCTTCAA,0.0203
15,ACTAGCGA,-0.0939
16,AAACGGCA,0.301
17,ATACATCA,0.398
18,CCGCGGAG,-0.225
19,CAGACATA,0.131
20,CCTTCAGC,-0.19
21,GACACTAC,0.0584
22,CTAGAATA,0.173
